Reference: paper PMC4336329 (PLoS ONE, 2015)
Among all 310,000 compounds or so, about 14,000 (4.5%) showed an effect of 50% or more. The effect is printed as a negative number. Some of the results follow.

molecular target: human ether-à-go-go-related gene (hERG) potassium channel (human, UniProt Q12809); assay: primary screen, population patch clamp on CHO cells stably expressing hERG
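Further: peak tail current of the secondary pulse compared with the same well before compound.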

Sequence of human ether-à-go-go-related gene (hERG) potassium channel (Q12809 whole entry, looked up): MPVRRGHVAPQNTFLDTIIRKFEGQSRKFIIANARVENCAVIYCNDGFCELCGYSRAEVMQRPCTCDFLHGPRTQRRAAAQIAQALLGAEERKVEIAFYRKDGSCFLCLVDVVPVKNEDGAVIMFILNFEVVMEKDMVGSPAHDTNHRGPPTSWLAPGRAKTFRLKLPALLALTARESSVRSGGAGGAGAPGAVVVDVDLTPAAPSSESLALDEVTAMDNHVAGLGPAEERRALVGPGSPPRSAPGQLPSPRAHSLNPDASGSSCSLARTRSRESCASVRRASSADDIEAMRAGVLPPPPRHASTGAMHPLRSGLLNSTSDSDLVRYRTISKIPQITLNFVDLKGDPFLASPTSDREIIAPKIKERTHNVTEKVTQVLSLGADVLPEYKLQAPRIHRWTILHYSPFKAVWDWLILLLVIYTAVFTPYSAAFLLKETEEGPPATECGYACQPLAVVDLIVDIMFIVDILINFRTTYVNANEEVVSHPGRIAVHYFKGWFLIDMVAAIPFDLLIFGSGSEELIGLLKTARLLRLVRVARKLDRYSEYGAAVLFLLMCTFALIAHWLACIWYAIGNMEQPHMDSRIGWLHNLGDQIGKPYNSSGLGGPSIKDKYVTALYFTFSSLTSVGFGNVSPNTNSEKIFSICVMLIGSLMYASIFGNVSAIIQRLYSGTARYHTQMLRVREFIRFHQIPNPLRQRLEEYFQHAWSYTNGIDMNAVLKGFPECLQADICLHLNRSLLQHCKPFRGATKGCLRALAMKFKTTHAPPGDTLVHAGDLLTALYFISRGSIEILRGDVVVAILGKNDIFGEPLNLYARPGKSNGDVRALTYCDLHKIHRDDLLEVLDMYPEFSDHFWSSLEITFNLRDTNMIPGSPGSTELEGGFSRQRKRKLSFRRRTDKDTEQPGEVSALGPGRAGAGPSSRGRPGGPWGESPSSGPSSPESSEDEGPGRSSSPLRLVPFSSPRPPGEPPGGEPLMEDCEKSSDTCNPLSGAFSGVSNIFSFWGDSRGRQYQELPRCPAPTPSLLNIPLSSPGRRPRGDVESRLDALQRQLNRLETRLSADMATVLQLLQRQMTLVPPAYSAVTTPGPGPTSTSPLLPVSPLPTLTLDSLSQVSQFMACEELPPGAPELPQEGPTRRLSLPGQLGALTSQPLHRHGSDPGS

In order of falling “hERG current change (%, negative = inhibition) at 10uM” value:
1. Cc1ccccc1NC(C)C(=O)N/N=C/c1c[nH]c2ccccc12 (stereo not shown)  42.7%
2. O=C(O)/C=C\C(=O)Nc1ccc(N2CCN(c3ccc(Cl)c(Cl)c3)CC2)cc1  27.1%
3. CNC(=O)c1nnn(Cc2ccccc2)c1NC(=O)C(F)(F)F  22.9%
4. O=C(Oc1ccc(Br)cc1)c1n[nH]c(=O)c2ccccc12  22.4%
5. Cc1cc(OCC(=O)O/N=C(\N)c2ccccc2)ccc1Br  20.6%
6. COc1cccc(-c2sc3ccc(OC)cc3c2C#CC(C)(C)O)c1  20.2%
7. CCc1ccc(-c2nc(CS(=O)CC(=O)NCCCN3CCOCC3)c(C)o2)cc1 (stereo not shown)  19.8%
8. CC1(C)C([N+](=O)[O-])C(c2ccc(Cl)cc2)NC(c2ccc(Cl)cc2)C1[N+](=O)[O-] (stereo not shown)  19.7%
9. Cc1cccc(NC(=O)NNC(=O)COc2ccc(Cl)cc2)c1  18.3%
10. Cl.O=C(O)c1ccccc1N/N=C\c1ccnc2ccccc12  18.1%
11. O=C(Nc1nccs1)c1ccc(COc2ccccc2Cl)o1  17.8%
12. COc1ccc2nc(SCC(=O)NC(C)C)[nH]c2c1  17.3%
13. CC(C)(C)NC(=O)C(c1ccncc1)N(C(=O)Cn1nnc(-c2ccc(F)cc2)n1)c1ccccc1 (stereo not shown)  17.1%
14. CS(=O)(=O)N1CCN(c2cccc(Cl)n2)CC1  17%
15. CCC(=O)Nc1ccc(C(=O)NNC(=O)c2cc(OC)c(OC)c(OC)c2)cc1  17%
16. Cc1ccc(C(=O)NC(=S)NCc2ccccc2)cc1Br  15.3%
17. O=Cc1cccc(OC(=O)c2ccc(Cl)cc2Cl)c1  14.9%
18. COc1ccc(C(C(=O)NC2CCCC2)N(C(=O)CNC(=O)c2ccco2)c2cccnc2)cc1 (stereo not shown)  14.7%
19. CC(C)n1nnnc1SCC(=O)NC1CCCC1  14.3%
20. COc1cc(OC)cc(-c2cc(N3C(=O)Nc4ccccc4N3O)n[nH]2)c1  13.5%
21. CN(C)/C=C(\C=O)c1ccc(Cl)cc1Cl  13.3%
22. NC(=O)N/N=C/c1cc(F)cc(F)c1  13.1%
23. Cc1cc(C(=O)NNC(=O)c2cccs2)nn1C(C)(C)C  12.3%
24. CN1C(=S)SC(C)(C)C1(C)NO (stereo not shown)  12.1%
25. Cc1ccc(C)c(NC(=S)NCCSc2ccc(Cl)cc2)c1  11.9%
26. Cc1cccc(C)c1NC(=O)N1CCCCCCC1  11.1%
27. O=C(NCCCc1ccccc1)N1CCOCC1  10.8%
28. CCN1CC(CN(C)Cc2nc(COc3ccccc3)no2)CC1=O (stereo not shown)  10.2%
29. COc1ccccc1-c1cn[nH]c1-c1ccc(OCc2ccccc2F)cc1O  9.77%
30. COc1ccc(CC(=O)N/N=C/c2ccc(Cl)s2)cc1OC  9.31%
31. CCOC(=O)C1CCCN(C(=O)c2ccc(OCC)cc2)C1 (stereo not shown)  9.13%
32. CN(CC(=O)Nc1ccc(N2CCOCC2)cc1)Cc1cc(=O)n2ccsc2n1  7.88%
33. Cc1ccc(N(CC(=O)NCCc2ccc(F)cc2)S(=O)(=O)c2ccc(Cl)c([N+](=O)[O-])c2)c(C)c1  7.41%
34. O=C(/C=C/c1ccccc1)Nc1ccc(NC(=O)c2cccs2)cc1  6.8%
35. O=C(NCc1ccc(C(F)(F)F)cc1)C1CC(c2ccc(C(F)(F)F)cc2)=NO1 (stereo not shown)  6.74%
36. COc1cccc(N2CC(C(=O)Nc3ccc(F)cc3)CC2=O)c1 (stereo not shown)  6.07%
37. COc1ccc(CN2C(=NC(=O)C3CCCCC3)SC3CS(=O)(=O)CC32)cc1 (stereo not shown)  5.92%
38. Cc1ccc(NC(=O)[C@@H](NC(=O)c2cccc(S(=O)(=O)N3CCOCC3)c2)C(C)C)cc1C  5.87%
39. CCCCOC(=O)c1[nH]c(C)c(C(=O)OC)c1C  5.83%
40. O=C(NC(Cc1ccccc1)C(=O)O)/C(=C\c1ccco1)NC(=O)c1ccccc1 (stereo not shown)  4.61%
41. Clc1ccc(-c2nc(N3CCCCC3)nc3ccccc23)cc1  4.29%
42. C=CCC1CCC/C(=N\NS(=O)(=O)c2ccc(C)cc2)C1 (stereo not shown)  4.26%
43. Cc1nn(C)c(Cl)c1CN1CCN(CCC(C)C)C(CCO)C1 (stereo not shown)  4.03%
44. CC(=O)O[C@H]1CCC2C3CCC4=CC(=O)CCC4=C3C=C[C@@]21C (stereo partly shown)  3.64%
45. Cc1coc2cc3oc(=O)c(CCC(=O)NCCCN4CCCC4=O)c(C)c3cc12  3.48%
46. COc1cccc(NS(=O)(=O)c2ccc3c(c2)N(C(C)=O)CCS3)c1  2.67%
47. CCOC(=O)c1c(-c2ccc(OC)cc2)csc1/N=C/N(C)C  2.51%
48. COCCN(C(=O)Nc1ccc(OC)cc1OC)C1CCN(C(C)C)CC1  2.16%
49. Cc1ccccc1N1CCN(CC(=O)Nc2nc(C)c(C(=O)N(C)C)s2)CC1  2.02%
50. CN(C)S(=O)(=O)c1ccc(N2CCCC2)c(C(=O)Nc2nc(-c3cc(F)ccc3F)cs2)c1  0.334%
51. COc1ccc(OC)c(S(=O)(=O)Nc2ccc(C(C)=O)cc2)c1  0.161%
52. CCOc1ccc(N=Cc2c(O)cc(C)oc2=O)cc1  0.0703%
53. O=C(CSc1nc(C2CC2)nc2ccccc12)NCc1ccc2c(c1)OCO2  0.0232%
54. Cc1cc(NC(=O)CSc2nc(Cc3ccc(O)cc3)c(C)[nH]2)no1  -0.933%
55. CNc1ccc(S(=O)(=O)NCC(=O)OC(C)C(=O)N(C)Cc2ccccc2)cc1[N+](=O)[O-] (stereo not shown)  -1.57%
56. CC(=O)C1=C(C)NC(=O)CC1c1ccccc1Cl (stereo not shown)  -1.65%
57. COc1cccc2cc(C(=O)N3CCCCC3C)c(=O)oc12 (stereo not shown)  -2.3%
58. Cc1ccc(C(NC(=O)NN2CCN(C)CC2)C(Cl)Cl)cc1F (stereo not shown)  -2.9%
59. Cc1nc(-c2cccc(NC(=O)c3ccc(-n4nccc4C)cc3)c2)cs1  -3.31%
60. COCC(=O)Nc1ccc(C(=O)Nc2ccccc2Cl)cc1  -4.02%
61. O=C(CNCc1ccccn1)Nc1ccc([N+](=O)[O-])cc1C(=O)Nc1ccccc1F  -4.29%
62. CCOC(=O)c1ccc(NC(=S)N2CCN(CCNC3=CC(=O)CC(C)(C)C3)CC2)cc1  -4.36%
63. Cc1ccc(S(=O)(=O)N(c2cccc(C)c2)C2CCS(=O)(=O)C2)cc1 (stereo not shown)  -4.52%
64. CN(Cc1nc(-c2ccc(C(F)(F)F)cc2)no1)C1CCOCC1  -4.86%
65. COc1ccc(C(C[N+](=O)[O-])c2c(-c3ccccc3)cc3ccccn23)cc1OC (stereo not shown)  -5.28%
66. O=C(NCCc1ccccc1)c1ccc(S(=O)(=O)N2CCCC2)cc1  -5.37%
67. Cc1nnc(SCC(=O)NC(=O)NCc2ccco2)n1Cc1ccccc1  -6.26%
68. CCCN(C(=O)c1cc(Cl)nc2ccccc12)c1c(N)n(Cc2ccccc2)c(=O)[nH]c1=O  -7.07%
69. CC1(C)Cc2[nH]c(=O)c(C#N)cc2CS1  -7.22%
70. CN(CCOc1ccccc1)CC(=O)Nc1ccc(Cl)cc1[N+](=O)[O-].O=C(O)C(=O)O  -8.1%
71. CCOc1ccc(CC(=O)Nc2nccs2)cc1  -8.5%
72. COc1ccc(N2C(=O)c3ccccc3NC2c2ccc(OC)c(Cn3nnc4ccccc43)c2)cc1 (stereo not shown)  -8.85%
73. COc1ccccc1C1=NNC(=NCc2ccccc2)SC1  -8.96%
74. COCCn1c(SCc2ccc(C(=O)OC)o2)nc2cc(Cl)ccc2c1=O  -9.42%
75. COCCCNC(=S)N1CCCN(c2nc3cc(C)c(C)cc3cc2C#N)CC1  -10.2%
76. O=C(O)CCSC(=S)N1CCOCC1  -10.3%
77. O=C(OCn1nnc2ccccc2c1=O)c1cn(-c2ccccc2)nc1-c1cccnc1  -11.9%
78. CCCNS(=O)(=O)c1ccc(OCC(=O)N2CCC(C(=O)OCC)CC2)cc1  -12.6%
79. O=C(Cc1c(F)cccc1Cl)Nc1nc2ccccc2s1  -14.5%
80. Cc1noc(C)c1CSc1ccc2ccccc2n1  -15.5%
81. CCN(C(=O)COC(=O)C1CCN(S(=O)(=O)c2c(Cl)cccc2Cl)CC1)C1CCCCC1  -16.9%
82. Cc1cccc(C)c1Nc1c(-c2ccc(N3CCOCC3)cc2)nc2ncccn12  -19%
83. COc1ccc(CCN2C(=S)NC3CC2(C)Oc2ccc([N+](=O)[O-])cc23)cc1OC (stereo not shown)  -19%
84. CC(=O)c1ccc(OCC(O)CN2CCN(CCN3C(=O)c4cccc5cccc(c45)C3=O)CC2)cc1.Cl (stereo not shown)  -34.1%
85. COc1ccccc1/C=C/C(=O)NCC(=O)N/N=C/c1ccccc1[N+](=O)[O-]  -36.9%
86. COc1ccc(NC(=S)N(CCCN2CCCCC2)Cc2cccs2)cc1  -61%
87. O=C(NCc1cccnc1)c1cccn2c(=O)c3sccc3nc12  -63.2%
88. Cc1ccc(C(=O)N/C(=C\c2ccc(-c3ccccc3[N+](=O)[O-])o2)C(=O)NCCCN(C)C)cc1  -74.5%
